B1: Caulobacter ParB omega fusion; a variant is named by its letters at X, in order, B8GW30 (parent)
chain: MESVVVGEPGMSEGRRGLGRGLSALLGEVDAAPAQAPGEQLGGSREAPIEILQRNPDQPRRTFREEDLEDLSNSIREKGVLQPILVRPSPDTAGEYQIVAGERAWRAAQRAGLKTVPIMVRELDDLAVLEIGIIENVQRADLNVLEEALSYKVLMEKFERTQENIAQTIGKSXSHVANXMRLLXLPDEVQSYLVSGELTAXHARAIAAAADPVALAKQIIEGGLSVRETEALARKAPNLSAGKSKGGRPPRVKDTDTQALESDLSSVLGLDVSIDHRGSTGTLTITYATLEQLDDLCNRLTRGI

The full ranking holds about 81,000 sequences; the median of “one-hybrid fitness for binding parS DNA” is about -0.17, and the highest 2% start at about 0.51. This is one part of the list.

Here are results for 153 variants from a collection of fitness landscapes (doi:10.1016/j.celrep.2020.107928).

This assay covers variants of B1. Kind of assay: one-hybrid fitness for binding parS DNA (scaled: cognate 1, non-cognate 0); higher = stronger binding. Conditions: with parS DNA site. Put shortly: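 Fitness is the rescaled log change in variant-to-wild-type read ratio, measured by Illumina sequencing of plasmids before and after bacterial one-hybrid selection. The scale puts cognate at 1 and non-cognate at 0. Selection of Caulobacter ParB libraries, four specificity codons randomised, took place in E. coli USO with a HIS3 reporter, site 19 bp from the promoter, over 48 hours at 37°C on M9-minus-histidine with 0.1 mM IPTG and 5 mM 3-AT.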
Regarding SRHH, the “one-hybrid fitness for binding parS DNA” value was at most 0.2.
The result for NSLL reads at most 0.2; that for RQFN, 0.363; that for RPPV, at most 0.2.
Take DRGF: the “one-hybrid fitness for binding parS DNA” value is at most 0.2.
For the variant TQWG, the “one-hybrid fitness for binding parS DNA” value is at most 0.2.
For the variant SRNW, the “one-hybrid fitness for binding parS DNA” value was at most 0.2.
Regarding IDQT, the “one-hybrid fitness for binding parS DNA” value is at most 0.2.
For DCTT the value was at most 0.2.
The result for LMHI reads at most 0.2; that for SFCG, at most 0.2; that for PSKN, at most 0.2.
For QFST the value was at most 0.2; for RMYK, at most 0.2.
As for VGTE, the “one-hybrid fitness for binding parS DNA” value is at most 0.2.
The result for GECK reads 0.213.
The result for CRFE reads at most 0.2; that for TTDD, at most 0.2.
The result for QRLT reads at most 0.2.
With MRHL, the “one-hybrid fitness for binding parS DNA” value is at most 0.2.
For KMCF the value was at most 0.2; for VYTL, at most 0.2; for RLSG, 1.01.
The result for PVDS reads at most 0.2; that for WPLR, at most 0.2.
As to STFL, the “one-hybrid fitness for binding parS DNA” value is at most 0.2.
The result for QNSW reads at most 0.2; that for HNMG, at most 0.2.
WSTV: the “one-hybrid fitness for binding parS DNA” value is at most 0.2.
As for HYHG, the “one-hybrid fitness for binding parS DNA” value was at most 0.2.
For GAYC the value was at most 0.2.
For TLSQ the value was at most 0.2.
Take QAAR: the “one-hybrid fitness for binding parS DNA” value was at most 0.2.
For RKWL the value was at most 0.2; for MFAA, at most 0.2.
The result for LLYL reads at most 0.2; that for GKMC, at most 0.2; that for LCSC, at most 0.2.
With DAKS, the “one-hybrid fitness for binding parS DNA” value was at most 0.2.
The result for ARAY reads at most 0.2; that for CYKM, at most 0.2.
The result for HRYH reads at most 0.2.
For PEMT the value was at most 0.2.
Turning to TSPT, the “one-hybrid fitness for binding parS DNA” value is at most 0.2.
The result for ADAA reads at most 0.2; that for WFKL, at most 0.2.
The result for QTDT reads at most 0.2.
For EVTL the value was at most 0.2.
With FPRR, the “one-hybrid fitness for binding parS DNA” value was at most 0.2.
The result for ADER reads at most 0.2; that for EACG, at most 0.2; that for TSKN, at most 0.2.
Turning to FMPT, the “one-hybrid fitness for binding parS DNA” value was at most 0.2.
The result for FPDT reads at most 0.2.
QTMP: the “one-hybrid fitness for binding parS DNA” value is at most 0.2.
In the case of GSLG, the “one-hybrid fitness for binding parS DNA” value is at most 0.2.
As to SAGT, the “one-hybrid fitness for binding parS DNA” value is at most 0.2.
In the case of AVCG, the “one-hybrid fitness for binding parS DNA” value is at most 0.2.
The result for CEPT reads at most 0.2.
On to THLW, for which the “one-hybrid fitness for binding parS DNA” value is at most 0.2.
The result for LGHW reads at most 0.2; that for LFDT, at most 0.2; that for MMRE, at most 0.2.
For RYKD the value was at most 0.2.
For GESS the value was at most 0.2.
Turning to QHYG, the “one-hybrid fitness for binding parS DNA” value is at most 0.2.
The result for GWLY reads at most 0.2.
For RYGS the value was 0.901; for TAGF, at most 0.2; for CQDG, at most 0.2.
The result for HNVR reads at most 0.2; that for RRLL, at most 0.2.
On to QELF, for which the “one-hybrid fitness for binding parS DNA” value is at most 0.2.
The result for RMIT reads 0.752.
For RARY the value was 0.552; for RAIS, 0.942; for TSEM, at most 0.2.
As for FLLC, the “one-hybrid fitness for binding parS DNA” value is at most 0.2.
For GPSD the value was at most 0.2; for CIVR, at most 0.2; for FWKT, at most 0.2.
Take PDWG: the “one-hybrid fitness for binding parS DNA” value is at most 0.2.
Regarding LKPH, the “one-hybrid fitness for binding parS DNA” value worked out at 0.236.
The result for IPVR reads at most 0.2; that for CWLY, at most 0.2.
The result for FTTI reads at most 0.2; that for QMYS, at most 0.2.
For WSSF the value was at most 0.2; for PPTP, at most 0.2.
MIDS: the “one-hybrid fitness for binding parS DNA” value was at most 0.2.
CADR: the “one-hybrid fitness for binding parS DNA” value is at most 0.2.
The result for PSDW reads at most 0.2.
Take FAKR: the “one-hybrid fitness for binding parS DNA” value is at most 0.2.
For AEEG the value was at most 0.2.
For DVLN the value was at most 0.2; for SQPA, at most 0.2; for PPKA, at most 0.2.
The result for AHKR reads at most 0.2; that for THSW, at most 0.2.
Take IVKE: the “one-hybrid fitness for binding parS DNA” value was at most 0.2.
The result for SLNK reads at most 0.2; that for HSHI, at most 0.2; that for PVEL, at most 0.2.
The result for VRSF reads at most 0.2; that for WIWS, at most 0.2.
The result for KWVS reads at most 0.2; that for STHK, at most 0.2.
For PPSK, the “one-hybrid fitness for binding parS DNA” value was at most 0.2.
For QLDV the value was at most 0.2.
RMCL: the “one-hybrid fitness for binding parS DNA” value is at most 0.2.
Regarding PVTV, the “one-hybrid fitness for binding parS DNA” value is at most 0.2.
For QVSY, the “one-hybrid fitness for binding parS DNA” value is at most 0.2.
The result for PNPN reads at most 0.2.
For RTGQ, the “one-hybrid fitness for binding parS DNA” value is at most 0.2.
For QKKC the value was at most 0.2.
Take SICV: the “one-hybrid fitness for binding parS DNA” value is at most 0.2.
For GWAK the value was at most 0.2; for LLQG, at most 0.2.
The result for ASKV reads at most 0.2; that for LWWR, at most 0.2; that for FVNS, at most 0.2.
The result for DVRI reads at most 0.2; that for HIDW, at most 0.2; that for FTPR, at most 0.2.
As for RYAQ, the “one-hybrid fitness for binding parS DNA” value is at most 0.2.
The result for PRNH reads at most 0.2.
For AGPL the value was at most 0.2; for CRRA, at most 0.2.
For MQHL the value was at most 0.2; for DPYG, at most 0.2; for RQKN, 0.433.
SMHT: the “one-hybrid fitness for binding parS DNA” value is at most 0.2.
For PLSG the value was at most 0.2; for EQAA, at most 0.2.
The result for TASS reads at most 0.2; that for HSPE, at most 0.2; that for QNCS, at most 0.2.
For AITY the value was at most 0.2; for QYMD, at most 0.2.
As to KSAV, the “one-hybrid fitness for binding parS DNA” value is at most 0.2.
Consider NTFT, for which the “one-hybrid fitness for binding parS DNA” value was at most 0.2.
RAYQ: the “one-hybrid fitness for binding parS DNA” value is at most 0.2.
With WADM, the “one-hybrid fitness for binding parS DNA” value was at most 0.2.
For FLRS the value was at most 0.2; for TYVL, at most 0.2; for YKCS, at most 0.2.
As to VTQY, the “one-hybrid fitness for binding parS DNA” value was at most 0.2.
For CFPR the value was at most 0.2; for RMII, at most 0.2.
For HPAE the value was at most 0.2; for REWS, 0.218.
For EHLG the value was at most 0.2; for LRAE, at most 0.2.
